Measured values published in the supplement of paper PMC8728848.
The list shows a part of the results.

Tests used:
Assay in all cases: glycan array binding signal (z-score within array); higher = stronger binding
Conditions in all cases: glycan notation: IUPAC condensed, linker removed; mutation: R144S
[1] = target: Gal3S(b1-4)[Fuc(a1-3)]Glc
In short: (§1)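 The binding signal is a Z-score computed within each array. Data were drawn from 3228 arrays in the Consortium for Functional Glycomics database, restricted to those with a known protein sequence. Scores were averaged over arrays of the same protein sequence at different concentrations or buffers, and over linkers, and negative values can be taken as non-binding.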

[2] = target: Gal3S(b1-4)[Fuc(a1-3)]Glc6S
In short: as §1

[3] = target: Gal3S4S(b1-4)GlcNAc
In short: as §1

[4] = target: Gal3S6S(b1-4)GlcNAc
In short: as §1

[5] = target: Gal3S6S(b1-4)GlcNAc6S
In short: as §1

[6] = target: Gal4S(b1-4)GlcNAc
In short: as §1

[7] = target: Gal4S6S(b1-4)GlcNAc
In short: as §1

[8] = target: Gal6S(b1-4)Glc
In short: as §1

[9] = target: Gal6S(b1-4)Glc6S
In short: as §1

[10] = target: Gal6S(b1-4)GlcNAc
In short: as §1

[11] = target: Gal6S(b1-4)GlcNAc6S
In short: as §1

[12] = target: GalNAc(a1-3)Gal
In short: as §1

[13] = target: GalNAc(a1-3)GalNAc
In short: as §1

[14] = target: GalNAc(a1-3)GalNAc(a1-3)Gal(a1-4)Gal(b1-4)GlcNAc
In short: as §1

[15] = target: GalNAc(b1-3)Gal
In short: as §1

[16] = target: GalNAc(b1-3)Gal(a1-4)Gal(b1-4)GlcNAc
In short: as §1

[17] = target: GalNAc(b1-3)Gal(a1-4)Gal(b1-4)GlcNAc(b1-3)Gal(b1-4)Glc
In short: as §1

[18] = target: GalNAc(b1-3)Gal(a1-6)Gal(b1-4)Glc
In short: as §1

[19] = target: GalNAc(b1-3)GalNAc
In short: as §1

[20] = target: GalNAc(b1-4)GlcNAc
In short: as §1

[21] = target: GalNAc(b1-4)GlcNAc(b1-2)Man(a1-3)[GalNAc(b1-4)GlcNAc(b1-2)Man(a1-6)]Man(b1-4)GlcNAc(b1-4)GlcNAc
In short: as §1

[22] = target: Glc(a1-4)Glc
In short: as §1

[23] = target: Glc(a1-6)Glc(a1-6)Glc
In short: as §1

[24] = target: Glc(b1-4)Glc
In short: as §1

[25] = target: Glc(b1-6)Glc
In short: as §1

[26] = target: GlcA(b1-3)Gal
In short: as §1

[27] = target: GlcA(b1-3)GlcNAc
In short: as §1

[28] = target: GlcA(b1-6)Gal
In short: as §1

[29] = target: GlcNAc(a1-3)Gal(b1-4)GlcNAc
In short: as §1

[30] = target: GlcNAc(a1-4)Gal(b1-3)GlcNAc
In short: as §1

[31] = target: GlcNAc(a1-4)Gal(b1-4)GalNAc
In short: as §1

[32] = target: GlcNAc(a1-4)Gal(b1-4)GlcNAc
In short: as §1

[33] = target: GlcNAc(a1-4)Gal(b1-4)GlcNAc(b1-3)Gal(b1-4)Glc
In short: as §1

[34] = target: GlcNAc(a1-4)Gal(b1-4)GlcNAc(b1-3)Gal(b1-4)GlcNAc
In short: as §1

[35] = target: GlcNAc(a1-4)Gal(b1-4)GlcNAc(b1-3)Gal(b1-4)GlcNAc(b1-3)Gal(b1-4)GlcNAc
In short: as §1

[36] = target: GlcNAc(a1-4)Gal(b1-4)GlcNAc(b1-3)Gal(b1-4)[Fuc(a1-3)]GlcNAc(b1-3)Gal(b1-4)[Fuc(a1-3)]GlcNAc
In short: as §1

[37] = target: GlcNAc(a1-6)Gal(b1-4)GlcNAc
In short: as §1

[38] = target: GlcNAc(b1-2)Gal(b1-3)GalNAc
In short: as §1

[39] = target: GlcNAc(b1-2)Man(a1-3)[GlcNAc(b1-2)Man(a1-6)]Man(b1-4)GlcNAc(b1-4)GlcNAc
In short: as §1

[40] = target: GlcNAc(b1-2)Man(a1-3)[GlcNAc(b1-2)Man(a1-6)]Man(b1-4)GlcNAc(b1-4)[Fuc(a1-6)]GlcNAc
In short: as §1

[41] = target: GlcNAc(b1-2)[GlcNAc(b1-4)]Man(a1-3)[GlcNAc(b1-2)Man(a1-6)]Man(b1-4)GlcNAc(b1-4)GlcNAc
In short: as §1

[42] = target: GlcNAc(b1-3)Gal
In short: as §1

[43] = target: GlcNAc(b1-3)Gal(b1-3)GalNAc
In short: as §1

[44] = target: GlcNAc(b1-3)Gal(b1-4)Glc
In short: as §1

[45] = target: GlcNAc(b1-3)Gal(b1-4)GlcNAc
In short: as §1

B1: Gal 3 (Homo sapiens), P17931 (protein)
chain: MADNFSLHDALSGSGNPNPQGWPGAWGNQPAGAGGYPGASYPGAYPGQAPPGAYPGQAPPGAYHGAPGAYPGAPAPGVYPGPPSGPGAYPSSGQPSAPGAYPATGPYGAPAGPLIVPYNLPLPGGVVPRMLITILGTVKPNANSILDFQRGNDVAFHFNPRFNENNRRVIVCNTKLDNNWGREERQSVFPFESGKPFKIQVLVEPDHFKVAVNDAHLLQYNHRVKKLNEISKLGISGDIDLTSASYTMI
For B1, which “glycan array binding signal (z-score)” value [1] is on record?
The value was -0.358.

And the “glycan array binding signal (z-score)” value [2]?
Its value is -0.359.

What about the “glycan array binding signal (z-score)” value [3] of the same binder?
Its value is -0.361.

What about the “glycan array binding signal (z-score)” value [4] of the same binder?
Its value is -0.358.

And the “glycan array binding signal (z-score)” value [5]?
Its value is -0.361.

And the “glycan array binding signal (z-score)” value [6]?
The value was -0.344.

What about the “glycan array binding signal (z-score)” value [7] of the same binder?
Its value is -0.364.

And the “glycan array binding signal (z-score)” value [8]?
Its value is -0.345.

And the “glycan array binding signal (z-score)” value [9]?
Its value is -0.357.

And the “glycan array binding signal (z-score)” value [10]?
Its value is -0.309.

What about the “glycan array binding signal (z-score)” value [11] of the same binder?
The value was -0.364.

What about the “glycan array binding signal (z-score)” value [12] of the same binder?
The value was -0.354.

What about the “glycan array binding signal (z-score)” value [13] of the same binder?
The value was -0.352.

What about the “glycan array binding signal (z-score)” value [14] of the same binder?
The value was 0.333.

And the “glycan array binding signal (z-score)” value [15]?
The value was -0.358.

What about the “glycan array binding signal (z-score)” value [16] of the same binder?
Its value is -0.355.

What about the “glycan array binding signal (z-score)” value [17] of the same binder?
The value was 0.182.

What about the “glycan array binding signal (z-score)” value [18] of the same binder?
Its value is -0.358.

And the “glycan array binding signal (z-score)” value [19]?
Its value is -0.354.

And the “glycan array binding signal (z-score)” value [20]?
The value was -0.344.

And the “glycan array binding signal (z-score)” value [21]?
Its value is -0.353.

And the “glycan array binding signal (z-score)” value [22]?
Its value is -0.361.

And the “glycan array binding signal (z-score)” value [23]?
Its value is -0.357.

What about the “glycan array binding signal (z-score)” value [24] of the same binder?
The value was -0.357.

What about the “glycan array binding signal (z-score)” value [25] of the same binder?
The value was -0.357.

What about the “glycan array binding signal (z-score)” value [26] of the same binder?
Its value is -0.359.

What about the “glycan array binding signal (z-score)” value [27] of the same binder?
Its value is -0.36.

And the “glycan array binding signal (z-score)” value [28]?
Its value is -0.359.

And the “glycan array binding signal (z-score)” value [29]?
The value was -0.358.

And the “glycan array binding signal (z-score)” value [30]?
The value was -0.356.

And the “glycan array binding signal (z-score)” value [31]?
Its value is -0.349.

What about the “glycan array binding signal (z-score)” value [32] of the same binder?
Its value is -0.355.

And the “glycan array binding signal (z-score)” value [33]?
The value was -0.356.

And the “glycan array binding signal (z-score)” value [34]?
Its value is 0.351.

And the “glycan array binding signal (z-score)” value [35]?
Its value is 1.56.

What about the “glycan array binding signal (z-score)” value [36] of the same binder?
The value was -0.34.

And the “glycan array binding signal (z-score)” value [37]?
The value was -0.347.

What about the “glycan array binding signal (z-score)” value [38] of the same binder?
Its value is -0.364.

What about the “glycan array binding signal (z-score)” value [39] of the same binder?
Its value is -0.358.

And the “glycan array binding signal (z-score)” value [40]?
The value was -0.361.

What about the “glycan array binding signal (z-score)” value [41] of the same binder?
The value was -0.341.

What about the “glycan array binding signal (z-score)” value [42] of the same binder?
Its value is -0.364.

What about the “glycan array binding signal (z-score)” value [43] of the same binder?
The value was -0.356.

And the “glycan array binding signal (z-score)” value [44]?
The value was -0.36.

And the “glycan array binding signal (z-score)” value [45]?
The value was -0.358.
